B1: chr12:66123492:66123593:-|3pUTR|ENSG00000139233|msi1|FALSE|unique (ssRNA)
RNA: GGGAGUUCUACAGUCCGACGAUCAUGCUACCCAAUAUCCAGUUAUAAUCAGGCCUCAACGUUCUGUCAGGUAUUAAUAUGGUUAGAAUUGUUCUUACAACUGGUAAUUAUAGUCAAUAGAGAUAAAACAGAUGAUGUACUGACCAACAGAGGAUUGAGCAUCA
B2: chrX:54470015:54470457:-|CDS|ENSG00000102302|control|control|control (ssRNA)
RNA: GGGAGUUCUACAGUCCGACGAUCUUCGUCAGUGAUGACGGGCCCCCCAGCCACAGCCUCUGCCCUGGGCCCCCUGCCCUGGCUAGUGUGCCUGUUGCCUUGGCCGACCCCCACCGGCCUGGCUCCCAAGAGGUUGACAGUGACCAACAGAGGAUUGAGCAUCA
B3: ENSG00000198589:be:win_5651|CDS|ENSG00000198589|bound_else_gene|NA|bound_elsewhere_windowed (ssRNA)
RNA: GGGAGUUCUACAGUCCGACGAUCUUAGCCAGACAAUGAAGGAUCAUCUAGUAAGAGUAGCAAAUGAAGCUGAAUUUAUCCUGAGCAGGCAGAGAGCAGAAGAUAUUCACAGACAUGCGGAAUUUGAGUCACUGUGUGCCCAGUCAACAGAGGAUUGAGCAUCA
B4: chr8:116643852:116643953:-|3pUTR|ENSG00000147677|unk|FALSE|unique (ssRNA)
RNA: GGGAGUUCUACAGUCCGACGAUCUGUUGUGAAUGAGGAAUUAGGAAUUAGGAGAAUGGUAGUACAUUGGGAAAAACAUAUUUUAGUAAUUUUUAUAUUUUAAAGAUAAUCACAGAUUUUGCUGUUUGUGCAUCACCAAAAUCACAACAGAGGAUUGAGCAUCA
B5: chr6:149410404:149410522:+|3pUTR|ENSG00000055208|unk|total|mutant (ssRNA)
RNA: GGGAGUUCUACAGUCCGACGAUCUUAUAUUUCUAUAUGUACCGUGUAACCGCCUUUUGUUAACUAAUUUUCUUUUUUCCUUUCCGUAAUUAAGCACGAUCAUGUCCCUUUUUAAGCCUUACCUGAGAGGAACAAUGCCUUAAACAACAGAGGAUUGAGCAUCA
B6: chr2:240466480:240466663:+|3pUTR|ENSG00000063660|msi1|total|mutant (ssRNA)
RNA: GGGAGUUCUACAGUCCGACGAUCGGAGCCAGUGUGCCCAAAAGCCAUGUAUUUCAGGGACCUCAGGGGCACCUCCGGCUGCCCCGCCCUCCCCCCAGCUCCCUGCACCGCCGCAGAAGCAGCCCCUCGAGGCCUACAGAGGAGCAACAGAGGAUUGAGCAUCA
B7: chr1:183252010:183252124:-|3pUTR|ENSG00000157064|unk|total|mutant (ssRNA)
RNA: GGGAGUUCUACAGUCCGACGAUCUCUUUGUUCACUCCCUGCCGAACUUGGAUGAAAUCAGUGUCCAUGGUUCUUUAUGUUUGCCGUCUUGAUGUGCUCCUGUGGUAUUACUUCCCCUCUGACCGGACAUUGCCGCCAGCCUCACAACAGAGGAUUGAGCAUCA
B8: ENSG00000119522:stop:overlap|stop_codon|ENSG00000119522|stop_codon|NA|stop_codon (ssRNA)
RNA: GGGAGUUCUACAGUCCGACGAUCUGGGCGAGUACGCUGGCAGUGACAAACUGUACCAUCAGUGGCUCUCCACUGUCCGGAUUUAGAUGUUAAGGAAGGCAGCCUACCAGAGAGAUUUAAAAAAACACCACAGAAAACCAAGGACAACAGAGGAUUGAGCAUCA
B9: ENSG00000136451:be:win_1001|CDS|ENSG00000136451|bound_else_gene|NA|bound_elsewhere_windowed (ssRNA)
RNA: GGGAGUUCUACAGUCCGACGAUCACCAAAAGCAGCAGCAGCAGCAGCAGCAGCAGCAGCAGCAGCAGCAACAACAACAACAACAACAUGUGACAAGCUGGCCAGGGAAGCAAGUAGAAACACUGAGACUGUGGGAAGAAGCUGCAACAGAGGAUUGAGCAUCA
B10: chr3:129431351:129431457:-|3pUTR|ENSG00000129071|unk|FALSE|unique (ssRNA)
RNA: GGGAGUUCUACAGUCCGACGAUCACUUCAAAAAAGCUUAAUUAAGUACAACCAACCACCUUUCCAGCCAUAGAGAUUUUAAUUAGCCCAACUAGAAGCCUAGUGUGUGUGCUUUCUUAAUGUGUGUGCCAAUGGUGGAUCUUUCAACAGAGGAUUGAGCAUCA
B11: chr4:69204429:69204649:-|CDS|ENSG00000213759|control|control|control (ssRNA)
RNA: GGGAGUUCUACAGUCCGACGAUCCCAUUGUUUUUUGAUCAACCUGAUAACAUUGCUCACAUGAAGGCCAAGGGAGCAGCUGUUAGAUUGGACUUCAACACAAUGUCGAGUACAGACCUGCUGAAUGCACUGAAGACAGUAAUUCAACAGAGGAUUGAGCAUCA
B12: chr8:41262032:41262394:-|3pUTR|ENSG00000104332|msi1|FALSE|unique (ssRNA)
RNA: GGGAGUUCUACAGUCCGACGAUCGGCCGUUCUGACCUGUUGCCAGCAGAUACACAGGACAUGGAUGAAAUUCCCGUUUCCUCUAGUUUCUUCCUGUAGUACUCCUCUUUUAGAUCCUAAGUCUCUUACAAAAGCUUUGAAUACCAACAGAGGAUUGAGCAUCA
B13: chr15:43184406:43184511:+|CDS|ENSG00000137842|unk|FALSE|unique (ssRNA)
RNA: GGGAGUUCUACAGUCCGACGAUCACUGCUGUACAUCUGGCAGGUUUAUUCCUGCUACUUUCUUUAUGCAACAUACGGCACCCUAGCUUUUUUAUUCUCCCCUUUGCGGACCUGGUUGACACUGCUGACACCUGUUCUCAUUCGCAACAGAGGAUUGAGCAUCA
B14: chr5:40568104:40569403:-|three_prime_utr|ENSG00000113638|control|control|control (ssRNA)
RNA: GGGAGUUCUACAGUCCGACGAUCGCGUGAGACACCAUGCUCAGUCCUUAACAUCUUUCAAGGGAUGUGAUUCUUUGUGGCAGUAGAAAGGUGCUUUUGAAUUCCUGGAUCCUCUUUUAAACACUAUCAAAUUAGAAUAUACUUCAACAGAGGAUUGAGCAUCA
B15: chr21:25606471:25606579:-|CDS|ENSG00000154719|unk|FALSE|unique (ssRNA)
RNA: GGGAGUUCUACAGUCCGACGAUCUGAUCUCUUUAAUAAAGAGAAAGCCAGGCAGUUAUCAUUAACUCCCCGAACUGAGAAGAUAGAAGUUAAGCAUGUUGGGAAAACUGACCCCGGUACUGUCUUCGUGAUGAAUAAAAACAUCAACAGAGGAUUGAGCAUCA
B16: chrX:85861749:85861850:-|3pUTR|ENSG00000188419|msi1|FALSE|unique (ssRNA)
RNA: GGGAGUUCUACAGUCCGACGAUCCUAAUUUAAAAUUUCAGAAAAUGCUAUUAAAGAAUUUUGAUUCAAGUAUUUAAACUGUUUAGUUAUGCAUGCUUCUUAUUAACCGAAAAUGAUAAUACCAUUUAGUUUAGUGAUCAGUAUCAACAGAGGAUUGAGCAUCA
B17: ENSG00000181104:stop:overlap|stop_codon|ENSG00000181104|stop_codon|NA|stop_codon (ssRNA)
RNA: GGGAGUUCUACAGUCCGACGAUCGUAAAAUGGAUACCUGCUCUAGUAACCUGAAUAACAGCAUAUACAAAAAGCUGUUAACUUAGGAAAAGGGACUGCUGGGAGGUUAAAAAGAAAAGUUUAUAAAAGUGAAUAACCUGAGGACAACAGAGGAUUGAGCAUCA
B18: chr2:112659350:112659462:+|CDS|ENSG00000144136|unk|FALSE|unique (ssRNA)
RNA: GGGAGUUCUACAGUCCGACGAUCCUUGCCAAGGUGGGAGAUUGCAUGGGAGACUCCGGUGACAAACCCUUAAGGCGCAAUAAUAGCUAUACUUCCUAUACCAUGGCAAUAUGUGGCAUGCCUCUGGAUUCAUUCCGUGCCAAACAACAGAGGAUUGAGCAUCA
B19: chr2:33399154:33399255:+|3pUTR|ENSG00000049323|msi1|FALSE|unique (ssRNA)
RNA: GGGAGUUCUACAGUCCGACGAUCAAGUACUUUAUAUUUUCAGUGUUUUGUCUGAUUUUAAUGUCCGUUCUUAGCCAAGCUGCUAGCAGGUGUUAAUUGGAUCCCUUUCCUUCACUGAAAUGGAAGAGUUUAUAAGCUUACGUUCAACAGAGGAUUGAGCAUCA
B20: chr5:180576808:180576909:+|3pUTR|ENSG00000113300|unk|FALSE|unique (ssRNA)
RNA: GGGAGUUCUACAGUCCGACGAUCUAUUUUCCGUGUCCUAAAUAAUUUUCAAUAAUCUAUAAUCCCUAAAAUGCAAUAAAAACUAGUAUGUUUUCACGGUGUAUAUUUUUUUUCAAAAAUUCUGUAACAAAUAUAUUUAAUGUGCAACAGAGGAUUGAGCAUCA
B21: chr12:39619279:39619382:-|CDS|ENSG00000173208|unk|FALSE|unique (ssRNA)
RNA: GGGAGUUCUACAGUCCGACGAUCCGAGACCAUUUGUGAAAAACCUUCGCCUGGAGUGAAUGCAGAUUUCUUCAAACAGCUACUAGAACUUCGGAAAAUUUUGUUUCCAAAACUUGUGACCACUGAAACAGGGUGGCUCUGCCUCAACAGAGGAUUGAGCAUCA
B22: ENSG00000198589:be:win_9551|3pUTR|ENSG00000198589|bound_else_gene|NA|bound_elsewhere_windowed (ssRNA)
RNA: GGGAGUUCUACAGUCCGACGAUCUGUGUGGAAUUCUGUGAAAAAUAUUUGAGAAAAGGCCUGUAUUGCAUAAAUAAAUUCUUUGUAUGUUGUGAACUUUGAUCUCUAUUUCUCUUGCAACAGACUUCAAGUGGUCCCUCUUUUCAACAGAGGAUUGAGCAUCA

Some of the results follow.

In the experiment the target is T1, UNK ZnF1-6 (called full-length) (human, UniProt Q9C0B0 30-357).
T1 sequence: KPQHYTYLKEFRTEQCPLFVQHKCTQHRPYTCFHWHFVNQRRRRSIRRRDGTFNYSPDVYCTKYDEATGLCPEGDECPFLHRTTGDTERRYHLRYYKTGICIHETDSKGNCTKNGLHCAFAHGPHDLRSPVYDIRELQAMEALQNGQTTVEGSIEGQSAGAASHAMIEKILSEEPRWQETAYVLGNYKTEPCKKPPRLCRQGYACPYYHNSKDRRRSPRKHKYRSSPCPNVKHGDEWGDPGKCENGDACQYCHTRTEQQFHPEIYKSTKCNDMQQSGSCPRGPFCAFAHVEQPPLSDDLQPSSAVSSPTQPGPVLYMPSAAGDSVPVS
Briefly: nsRBNS (natural sequence RNA bind-n-seq); RBNS binding buffer (assumed for nsRBNS): 25 mM Tris pH 7.5, 150 mM KCl, 3 mM MgCl2, 0.01% Triton X-100, 500 ug/ml BSA, 20 U/ml SUPERase-In, 4 C; UNK is unkempt and MSI1 is Musashi-1; names of the RNAs are library labels; protein concentration not given here; high values mean tight binding.
On to B1, for which the binding signal stood at 0.916 enrichment R.
Then B2, with 1.48 enrichment R; and B3, with 0.983 enrichment R.
Then B4, with 22.5 enrichment R; and B5, with 4.24 enrichment R; and B6, with 0.698 enrichment R.
Then B7, with 0.646 enrichment R; and B8, with 0.997 enrichment R.
On to B9, for which the binding signal was 0.905 enrichment R.
For B10 the value was 5.99 enrichment R.
Molecule B11 registered a binding signal of 0.475 enrichment R.
Then B12, with 3.06 enrichment R; and B13, with 2.15 enrichment R; and B14, with 4.47 enrichment R.
Molecule B15 returned a binding signal of 0.399 enrichment R.
For B16 the value was 2.27 enrichment R; for B17, 0.513 enrichment R; for B18, 0.72 enrichment R.
With B19, the binding signal came to 0.428 enrichment R.
Then B20, with 20.9 enrichment R; and B21, with 0.459 enrichment R.
Then B22, with 0.54 enrichment R.

(Values after PMC12136788.)
